# Assay results: PubChem BioAssay AID504332 (National Center for Advancing Translational Sciences (NCATS), 2011)
# In all, about 350,000 compounds went through this assay and about 31,000 (8.9%) were called active. Inconclusive means that the source gave no clear call. Such entries were picked first, then a sample of the others. The call rests on the fitted dose curve; in most records, active means well fitted inhibition curve with a large enough effect; inconclusive means small, poorly fitted or top-dose-only effect; inactive means no such curve, though single readings can be large or run the other way. Where the call is inconclusive, the potency comes from a doubtful curve fit.
# Molecular target: Histone-lysine N-methyltransferase EHMT2 (Homo sapiens) (UniProt Q96KQ7)
# Test: qHTS Assay for Inhibitors of Histone Lysine Methyltransferase G9a; further: nearly all actives have a fitted effect of over 75% in size
# Settings: G9a H3K9 monomethylation, AlphaScreen, 2 h; activity, negative = inhibition: at 59 µM (top of the series) unless noted
# In short: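 Using a bead-based AlphaScreen, monomethylated H3K9 product from 2 h room-temperature reactions (G9a 20 nM, peptide 500 nM, SAM 20 uM) was detected with 0.5 ug/mL rabbit anti-H3K9me1 antibody.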
# On the % scale 0 is the no-effect control and ±100 the full control effect; potency means the concentration at half of the fitted maximal effect; tags describe the fitted curve by direction and shape.
# Chain of UniProt Q96KQ7 (Q96KQ7 whole entry, looked up): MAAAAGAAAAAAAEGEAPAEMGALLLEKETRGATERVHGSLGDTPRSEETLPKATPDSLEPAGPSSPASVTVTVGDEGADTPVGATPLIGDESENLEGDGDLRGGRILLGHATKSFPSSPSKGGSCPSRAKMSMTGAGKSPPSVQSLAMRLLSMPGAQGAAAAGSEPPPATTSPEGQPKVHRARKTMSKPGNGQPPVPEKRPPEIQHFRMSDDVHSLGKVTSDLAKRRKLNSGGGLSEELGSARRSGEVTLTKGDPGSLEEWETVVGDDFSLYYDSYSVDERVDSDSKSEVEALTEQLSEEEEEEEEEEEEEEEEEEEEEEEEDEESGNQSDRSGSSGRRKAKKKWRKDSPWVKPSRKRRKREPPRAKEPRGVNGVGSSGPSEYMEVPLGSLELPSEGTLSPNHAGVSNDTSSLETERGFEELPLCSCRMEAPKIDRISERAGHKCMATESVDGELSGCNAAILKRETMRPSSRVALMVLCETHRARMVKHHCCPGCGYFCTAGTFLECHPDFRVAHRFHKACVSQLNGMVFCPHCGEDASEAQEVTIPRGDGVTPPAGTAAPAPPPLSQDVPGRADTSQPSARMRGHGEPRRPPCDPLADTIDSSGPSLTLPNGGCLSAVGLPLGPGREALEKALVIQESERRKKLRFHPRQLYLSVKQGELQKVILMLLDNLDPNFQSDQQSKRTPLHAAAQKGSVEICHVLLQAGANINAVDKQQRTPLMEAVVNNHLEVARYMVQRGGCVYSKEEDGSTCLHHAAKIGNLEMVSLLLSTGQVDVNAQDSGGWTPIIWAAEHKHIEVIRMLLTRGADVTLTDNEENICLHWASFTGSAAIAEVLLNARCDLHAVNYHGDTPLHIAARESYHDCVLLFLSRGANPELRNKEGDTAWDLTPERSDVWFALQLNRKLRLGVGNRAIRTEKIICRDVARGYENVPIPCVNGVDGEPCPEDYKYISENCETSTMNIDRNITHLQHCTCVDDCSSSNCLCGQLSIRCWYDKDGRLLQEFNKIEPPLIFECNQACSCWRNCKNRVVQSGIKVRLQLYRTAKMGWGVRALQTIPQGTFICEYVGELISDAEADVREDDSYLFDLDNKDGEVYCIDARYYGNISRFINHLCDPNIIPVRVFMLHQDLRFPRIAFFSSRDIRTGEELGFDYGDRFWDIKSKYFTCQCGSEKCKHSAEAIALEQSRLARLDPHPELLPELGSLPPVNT
Compound,Potency,"activity, negative = inhibition"
CCOC(=O)N1CCC2(CC1)C(C#N)=C(N)Oc1c2sc2nc(C)cc(C)c12,"inconclusive: 1.78 µM [inhibitor, partial curve, poor fit]",
COc1ccc(OC)c2sc(N3CCN(C(=O)c4ccc([N+](=O)[O-])s4)CC3)nc12,active: 35.5 µM,
O=C(NCCCN1CCOCC1)C(=O)NCC1OCCCN1S(=O)(=O)c1cc(F)ccc1F (stereo not drawn),"inconclusive: 2.82 µM [inhibitor, full curve]",
CCC(=O)Nc1ccccc1-c1nc2ccccc2n(C(C)C(=O)Nc2cccc(Cl)c2C)c1=O (stereo not drawn),"inconclusive: 39.8 µM [inhibitor, partial curve, poor fit]",
CC(C)NC(=O)NC(=O)CSc1nncs1,inactive,
CCCN(CCC)S(=O)(=O)c1ccc(NC(=O)COc2ccccc2)cc1,inactive,
Cc1cccc(-n2c(-c3csc4ccccc34)n[nH]c2=S)c1,active: 1.26 µM,
COc1cccc(C(=O)COC(=O)COc2c(C)cc(C)cc2C)c1,inactive,
CCOc1cc(CNc2ccc3c(c2)OCCO3)cc(Br)c1OCC(N)=O,active: 12.6 µM,
CN(CC(=O)NCC(c1ccccc1)N1CCCC1)S(=O)(=O)c1ccc(Cl)cc1 (stereo not drawn),,inactive: -5.36% [at 12.7 µM]
OC(CNC1CCCc2ccccc21)COc1c(Cl)cccc1Cl (stereo not drawn),active: 7.94 µM,
COc1cc(C(=O)Oc2cc(N)n(S(=O)(=O)c3ccccc3)n2)cc(OC)c1OC,"inconclusive: 89.1 µM [inhibitor, single point]",
O=[N+]([O-])c1cc(C(F)(F)F)ccc1Sc1ccccn1,"inconclusive: 79.4 µM [inhibitor, partial curve, poor fit]",
Cc1cccc(OCc2nnc(SCC(=O)Nc3cccc(C(=O)N4CCOCC4)c3)o2)c1C,active: 2 µM,
Cc1ccc2c(c1)sc[n+]2Cc1ccccc1,"inconclusive: 35.5 µM [inhibitor, single point]",
Cc1cc(C)c2c(N)c(C(=O)NC3CCCC3)sc2n1,active: 35.5 µM,
O=C1CN(C(=O)c2cc3ccccc3oc2=O)C(c2ccc(F)cc2)c2cc(Br)ccc2N1 (stereo not drawn),"inconclusive: 79.4 µM [inhibitor, single point]",
CCOc1cc(CNc2ccccc2SC)ccc1O,"inconclusive: 2.24 µM [inhibitor, partial curve, poor fit]",
Cc1ccc(S(=O)(=O)Nc2cc3c(C(=O)O)c(C)oc3c3ccccc23)c(C)c1,active: 50.1 µM,
CCN(C(=O)CN1C(=O)S/C(=C\c2ccc(Cl)cc2)C1=O)C1CCS(=O)(=O)C1 (stereo not drawn),"inconclusive: 89.1 µM [inhibitor, single point]",
Cc1ccc(S(=O)(=O)N2CCN(Cc3ccccn3)CC2)cc1,active: 3.55 µM,
Cc1ccc(C(=O)n2nnc3ccccc32)cc1[N+](=O)[O-],"inconclusive: 79.4 µM [inhibitor, partial curve, poor fit]",
Brc1ccc(CN2CCN(c3ccccn3)CC2)s1,active: 14.1 µM,

Compound,Potency,"activity, negative = inhibition"
CCOc1ccc(S(=O)(=O)c2cn(C)c3ccccc3c2=O)cc1,inactive,
Cc1cc(NS(=O)(=O)c2ccc(Nc3nc(-c4sc(NC(=O)c5ccccc5)nc4C)cs3)cc2)no1,"inconclusive: 11.2 µM [inhibitor, partial curve, poor fit]",
CCCCN(C(=O)c1oc2ccc(OCC)cc2c1C)c1c(N)n(CC(C)C)c(=O)[nH]c1=O,,inactive: 6.2% [at 2.33 µM]
CCNS(=O)(=O)c1ccc(S(=O)(=O)N(Cc2ccccn2)C2CCCCC2)cc1,"inconclusive: 50.1 µM [inhibitor, partial curve]",
O/N=C1/CCCCC1c1ccccn1 (stereo not drawn),"inconclusive: 28.2 µM [inhibitor, single point]",
CCCN1CCC(=O)N([C@H](CSc2ccccc2)c2ccccc2)CC1,"inconclusive: 89.1 µM [inhibitor, single point]",
Cc1ccc(OCCCOc2cccc3cccnc23)cc1C,,inactive: 8.67% [at 12.7 µM]
C=CCn1c(=O)c2ccccc2n2c(SCC(=O)Nc3sc(C)c(CC)c3C(=O)OCC)nnc12,"inconclusive: 22.4 µM [inhibitor, single point]",
Cc1ccc(C(=O)O)cc1-c1ccc(/C=C2\SC(=O)N(CC(=O)Nc3ccc4c(c3)OCO4)C2=O)o1,active: 15.8 µM,
CC(=O)c1ccc(N2C(=NC(=O)CCc3ccccc3)SC3CS(=O)(=O)CC32)cc1 (stereo not drawn),inactive,
O=C(NCC1CCCO1)c1onc(CSc2ccccc2)c1C(=O)O (stereo not drawn),,inactive: -8.83% [at 0.501 µM]
Cc1ccccc1CN1C(=O)CS/C1=N/N=C/c1ccco1,active: 39.8 µM,
CCc1nc(OCc2ccco2)c2sc3nc4c(cc3c2n1)COC(C)(C)C4,"inconclusive: 3.16 µM [inhibitor, partial curve, poor fit]",
CCCS(=O)(=O)c1c(S(=O)(=O)CCC)c2ccc(C(N)=O)cn2c1C(=O)OC,inactive,
S=c1[nH]nc(COc2ccccc2)n1/N=C/c1ccc(Cl)cc1,active: 7.08 µM,
O=[N+]([O-])c1ccccc1CSc1ccccn1,active: 50.1 µM,
CNc1nc(OC)nc(N(C#N)CN2C(=O)c3ccccc3S2(=O)=O)n1,"inconclusive: 14.1 µM [inhibitor, partial curve]",
C=CCOc1ccc(/C(O)=C2/C(=O)C(=O)N(CCN3CCOCC3)C2c2ccc(C)cc2)cc1 (stereo not drawn),"inconclusive: 28.2 µM [inhibitor, single point]",
CC1CCCCC1NC(=O)c1cc(=O)[nH]c2ccccc12 (stereo not drawn),"inconclusive: 89.1 µM [inhibitor, single point]",
Cc1cccc(N2CCN(CCCNC(=O)c3sc4ncccc4c3-n3cccc3)CC2C)c1 (stereo not drawn),"inconclusive: 25.1 µM [inhibitor, partial curve, poor fit]",
CC(C)(C)NC(=O)CSc1ncccc1-c1nc2ccccc2[nH]1,"inconclusive: 89.1 µM [inhibitor, single point]",
CC(=O)CSc1nc2ccc(Nc3nc(N4CCOCC4)nc(N4CCOCC4)n3)cc2s1,"inconclusive: 25.1 µM [inhibitor, single point]",
O=C(Cn1c(-c2cccs2)cc2cc(F)ccc21)NCCCN1CCN(c2ccccc2F)CC1,"inconclusive: 4.47 µM [inhibitor, partial curve, poor fit]",

Compound,Potency,"activity, negative = inhibition"
COc1ccc(/C=N/Nc2nc(=O)[nH]nc2C)cc1[N+](=O)[O-],"inconclusive: 3.16 µM [inhibitor, partial curve, poor fit]",
CN(C)C(CNC(=O)C1CCCN(C(=O)c2ccc(Cl)cc2)C1)c1ccco1 (stereo not drawn),"inconclusive: 89.1 µM [inhibitor, single point]",
CCCCn1c(SCC(=O)NCc2ccc(OC)c(C(=O)O)c2)nc2cc(S(N)(=O)=O)ccc21,inactive,
COc1cccc(CNc2ccc(N3CCCCC3)cc2)c1OC,"inconclusive: 1.41 µM [inhibitor, partial curve, poor fit]",
CCn1c(SCC(=O)Nc2ccccc2C(=O)OC)nc2c1c(=O)n(C)c(=O)n2C,active: 28.2 µM,
CCOC(=O)c1c(NC(=O)/C=C/c2ccco2)sc(C)c1C,active: 44.7 µM,
Cc1ccc2nc(-c3ccccc3)c(CC(=O)O)c(C(=O)O)c2c1,active: 44.7 µM,
CCNc1nc(NCC)nc(OCCOC(=O)Nc2ccccc2)n1,inactive,
COc1ccc(-c2cn3nc(N4CCC(C(=O)Nc5ccc(Cl)cc5C)CC4)sc3n2)cc1,"inconclusive: 39.8 µM [inhibitor, partial curve, poor fit]",
Cc1ccc(-c2nc3ncccn3c2NC2CCCCC2)o1,"inconclusive: 1.58 µM [inhibitor, partial curve, poor fit]",
Cc1oc(-c2ccc(C(=O)NCCc3ccc(Cl)cc3)cc2)nc1CSc1ccccc1,"inconclusive: 5.01 µM [inhibitor, partial curve, poor fit]",
CSCC[C@H](NC(=O)[C@@H]1Cc2ccccc2CN1)C(=O)NC[C@H]1CC[C@H](C(=O)O)CC1,"inconclusive: 50.1 µM [inhibitor, partial curve, poor fit]",
Cc1cc(NS(=O)(=O)c2ccc(NC(=O)c3ccco3)cc2)nc(C)n1,"inconclusive: 89.1 µM [inhibitor, single point]",
Cc1ccc(C)c(S(=O)(=O)ON2C(=O)c3ccccc3C2=O)c1,active: 7.94 µM,
CCc1ccc(NC(=O)CSc2ccc(-c3ccco3)nn2)cc1,"inconclusive: 39.8 µM [inhibitor, partial curve]",
COc1ccc2[nH]c(=O)c(C3c4cc(OC)c(OC)cc4CCN3C(=O)c3ccco3)cc2c1 (stereo not drawn),"inconclusive: 79.4 µM [inhibitor, single point]",
COc1ccc(-c2ccc([C@H]3[C@H]4C=CC[C@@H](C)[C@@H]4C(=O)N3Cc3ccccc3)c(F)c2)cc1OC,"inconclusive: 7.94 µM [inhibitor, single point]",
CSc1nc(O)c(C(c2ccc(C)cc2)c2c(O)nc(SC)[nH]c2=O)c(=O)[nH]1,active: 39.8 µM,
COc1cc(NC(=O)Cn2ncc3c2-c2ccccc2OC3)cc(OC)c1OC,inactive,
Cc1ccc(-c2c[n+](CC(=O)Nc3nc(-c4ccccc4)cs3)c3n2CCC3)cc1,"inconclusive: 70.8 µM [inhibitor, single point]",
COc1cc(NC(=O)CSc2nc3ccccc3cc2C)c(C(=O)O)cc1OC,"inconclusive: 31.6 µM [inhibitor, single point]",
Cc1nc(-c2ccccc2)cs1,inactive,
